Residues, ends and D or L forms follow the SMILES beside them.
Key:
179 lysC RNA = assay: In-line probing of 179 lysC RNA; conditions: for structural modulation of the RNA: 100 μM analog
251 yitJ RNA = type: binding, B. subtilis

SMILES	structural modulation of the RNA (179 lysC RNA)	structural modulation of the RNA after acid pretreatment of the compound (179 lysC RNA; pretreatment with 6 N HCl at 115° C. for 23 hr)	structural modulation of the RNA (251 yitJ RNA)
NCCCC[C@@H](N)C(=O)O [D-lysine]	does not undergo structural modulation	intermediate level of structural modulation	
NCCCCC[C@H](N)C(=O)O [L-α-homolysine]	failures		
C[C@H](N)C(=O)N[C@@H](CCCCN)C(=O)O [ala-lys] (H-Ala-Lys-OH)	does not undergo allosteric modulation		
C[S+](CC[C@H](N)C(=O)O)C[C@H]1O[C@@H](n2cnc3c(N)ncnc32)[C@H](O)[C@@H]1O (some centres unmarked) [SAM, S-adenosylmethionine]			undergoes conformational modulation
NCCCC[C@H](NC(=O)[C@@H](N)CCCCN)C(=O)O [lys-lys]	does not undergo allosteric modulation		
C[C@H](N)C(=O)N[C@@H](C)C(=O)O [ala-ala] (H-Ala-Ala-OH)	does not undergo allosteric modulation		
C[C@H](NC(=O)[C@@H](N)CCCCN)C(=O)O [lys-ala] (H-Lys-Ala-OH)	does not undergo allosteric modulation		

— patent US8440810B2, “Riboswitches, methods for their use, and compositions for use with riboswitches” (Yale University, priority 2002, dated 2013)
